Laboratory results published in publication PMC8245078, “Development of novel benzofuran-isatin conjugates as potential antiproliferative agents with apoptosis inducing mechanism in Colon cancer” (Journal of Enzyme Inhibition and Medicinal Chemistry, 2021).

Columns and labels:
NCI-H322M [1] = test: NCI single dose screening (10 µM); conditions: Homo sapiens, read-out: GI% (cell growth inhibition percentage)
Description: In the present investigation, the chemical structures for the novel benzofuran-isatin conjugates were presented to the Developmental Therapeutics Program at the National Cancer Institute (NCI), USA. Seven conjugates (5b–d,7a, 7b, 7d and 7g) were selected, according to NCI’s-DTP selection guidelines, for evaluating their potential in vitro anticancer activity against a panel of fifty-five human cancer cell lines representing nine tumour panels according to the NCI, Bethesda, Drug Evaluation Branch protocol[57]^,[58].
Firstly, the seven selected conjugates (5b–d,7a, 7b, 7d and 7g) were screened at a dose of 10 μM for their antiproliferative activity against a panel of fifty-five cancer cell lines.
(§1) 2.1. NCI, USA Anticancer Screening
The cytotoxicity in vitro assay was conducted at National Cancer Institute (NCI), Bethesda, USA against 59 cancer cell lines. The one-dose data were reported as a mean graph of the percent growth of treated cells. The number reported for the one-dose assay was growth relative to the no-drug control and relative to the time zero number of cells. This allowed detection of both growth inhibition (values between 0 and 100) and lethality (values less than 0). For example, a value of 100 means no growth inhibition. A value of 40 would mean 60% growth inhibition. A value of 0 means no net growth over the course of the experiment. A value of -40 would mean 40% lethality. A value of -100 means all cells were dead.
The human tumor cell lines of the cancer screening panel were grown in RPMI 1640 medium containing 5% fetal bovine serum and 2 mM L-glutamine. For a typical screening experiment, cells were inoculated into 96 well microtiter plates in 100 μL at plating densities ranging from 5,000 to 40,000 cells/well depending on the doubling time of individual cell lines. After cell inoculation, the microtiter plates were incubated at 37° C, 5 % CO2, 95 % air and 100 % relative humidity for 24 h prior to addition of experimental drugs. After 24 h, two plates of each cell line were fixed in situ with TCA, to represent a measurement of the cell population for each cell line at the time of drug addition (Tz). Experimental drugs were solubilized in dimethyl sulfoxide at 400-fold the desired final maximum test concentration and stored frozen prior to use. At the time of drug addition, an aliquot of frozen concentrate was thawed and diluted to twice the desired final maximum test concentration with complete medium containing 50 μg/mL gentamicin.
Additional four, 10-fold or ½ log serial dilutions were made to provide a total of five drug concentrations plus control. Aliquots of 100 μL of these different drug dilutions were added to the appropriate microtiter wells already containing 100 μL of medium, resulting in the required final drug concentrations. Following drug addition, the plates were incubated for an additional 48 h at 37°C, 5 % CO2, 95 % air, and 100 % relative humidity. For adherent cells, the assay was terminated by the addition of cold TCA. Cells were fixed in situ by the gentle addition of 50 μL of cold 50 % (w/v) TCA (final concentration, 10 % TCA) and incubated for 60 minutes at 4°C.
The supernatant was discarded, and the plates were washed five times with tap water and air dried. Sulforhodamine B (SRB) solution (100 μL) at 0.4 % (w/v) in 1 % acetic acid was added to each well, and plates were incubated for 10 minutes at room temperature. After staining, unbound dye was removed by washing five times with 1 % acetic acid and the plates were air dried. Bound stain was subsequently solubilized with 10 mM trizma base, and the absorbance was read on an automated plate reader at a wavelength of 515 nm. For suspension cells, the methodology was the same except that the assay was terminated by fixing settled cells at the bottom of the wells by gently adding 50 μL of 80 % TCA (final concentration, 16 % TCA).
Using the seven absorbance measurements [time zero, (Tz), control growth, (C), and test growth […]

NCI-H322M [2] = conditions: Homo sapiens, five-dose test, read-out: LC50 (the source's name)
Protocol: Accordingly, 5d was promoted to the five-dose (0.01–100 µM) screening assay. […] Where, GI50 values represents molar concentration which produces 50% inhibitory effect in the net cell growth; TGI (cytostatic activity) is the molar concentration with total growth inhibition and LC50 is the cytotoxicity parameter that reflects the molar concentration that results in 50% net cell death. In addition, the mean graph midpoints (MG-MID), representing the GI50 average for the individual subpanels as well as the full panel cell lines were calculated giving an average potency parameter for the examined compound 5d, (Table 3). Furthermore, by dividing the full panel MID by their individual subpanel MID, the selectivity index of compound 5d was calculated and was used to measure the selectivity of 5d towards different cancer cell subpanels.
as §1
The cytotoxicity in vitro assay was conducted at National Cancer Institute (NCI), Bethesda, USA against 59 cancer cell lines. The one-dose data were reported as a mean graph of the percent growth of treated cells. […]
The supernatant was discarded, and the plates were washed five times with tap water and air dried. […] Bound stain was subsequently solubilized with 10 mM trizma base, and the absorbance was read on an automated plate reader at a wavelength of 515 nm. […]

[3] = Non-small cell lung cancer, single dose 10^−5 M

Row | Structure (SMILES) | inhibition at 10 µM (NCI-H322M [1]) [%] | inhibition at 10 µM (NCI-H322M [1]; [3]) [%] | CC50 (NCI-H322M [2]) [µM]
1 | CCCN1C(=O)/C(=N\NC(=O)c2oc3ccccc3c2C)c2cc(Br)ccc21 [Compound 7g] | < 10 | – | –
2 | Cc1c(C(=O)N/N=C2\C(=O)Nc3ccc(F)cc32)oc2ccccc12 [Compound 5b] | – | < 10 | –
3 | Cc1c(C(=O)N/N=C2\C(=O)Nc3ccc(Br)cc32)oc2ccccc12 [Compound 5c] | – | 31.8 | –
4 | Cc1c(C(=O)N/N=C2\C(=O)N(Cc3ccccc3)c3ccccc32)oc2ccccc12 [Compound 7d] | 17.8 | – | –
5 | COc1ccc2c(c1)/C(=N/NC(=O)c1oc3ccccc3c1C)C(=O)N2 [Compound 5d] | – | 69.4 | > 100
6 | Cc1c(C(=O)N/N=C2\C(=O)N(C)c3ccccc32)oc2ccccc12 [Compound 7a] | – | < 10 | –
7 | CCCN1C(=O)/C(=N\NC(=O)c2oc3ccccc3c2C)c2ccccc21 [Compound 7b] | 11.9 | – | –

Read-outs that look alike come from different tables or passages of the source.
